According to PubChem BioAssay AID445 (National Center for Advancing Translational Sciences (NCATS), 2006):
Out of some 110,000 compounds screened, about 40 (0.04%) were called active. The inconclusive results got no clear call from the source; some entries with a clear call stand among them for comparison. Calls follow the shape of the dose curve; as a rule, active = well fitted curve in the direction sought with a large enough effect in the signal ratio (not every such curve was filed as active); inconclusive = small, poorly fitted or top-dose-only effect, or a change in a side signal; inactive = flat fitted curve, though single readings scatter; the % refers to the signal ratio. Potencies beside an inconclusive call are fits to weak or partial responses and may not hold up.

Assay: IkB Signaling;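 as to IkBa stabilization activation: 0% = basal untreated cells and 100% = reference inhibitor full response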
Conditions: ABC-DLBCL IkBa-CBG/CBR dual luciferase ratio (green luciferase fused to IkBa over red control in OCI-Ly3 lymphoma cells), 4 h; IkBa stabilization activation: at 57.1 µM (top of the series), scaled: untreated 0%, proteasome inhibitor 100% unless noted
Method in brief: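 Luminescence ratio of IκBα-fused green versus native red beetle luciferase in OCI-Ly3 cells, 4 h post-doxycycline with compound; red signal alone, scaled from basal (0%) to zero light (-100%), flagged nonspecific or cytotoxic effects.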
Potency is read from the fitted curve at half-maximal effect.

Row | Compound | IkBa stabilization activation | Potency
1 | C=CCSc1nnc2c(n1)OC(c1cccnc1)Nc1ccccc1-2 (centres undefined) | inactive: 11.8% | 
2 | COc1cc2c(cc1OC)CN(C(=O)Nc1ccccc1)CC2 |  | inconclusive: 20 µM [signal inhibitor, partial curve]
3 | COc1ccccc1NC(=O)c1ccc(COc2ccc(C)c(C)c2)o1 | inconclusive: 12.5% [signal inhibitor] | 
4 | Cc1cccc(N2CCN(S(=O)(=O)c3c(C)nc4scc(C)n4c3=O)CC2)c1C | inconclusive: 16.1% [signal inhibitor] | 
5 | CCn1cc2nc(SCc3cc(C)ccc3C)n(CCc3ccccc3)c(=O)c2n1 | inconclusive: 4.79% [signal inhibitor] | 
6 | CCCCn1c(=N)n(CCCOc2ccc(F)cc2)c2ccccc21 | inconclusive: -0.844% [signal inhibitor] | 
7 | CC(C)(C)c1c2c(c(C(C)(C)C)c3c1OCN(Cc1ccccc1)C3)OCN(Cc1ccccc1)C2 | inactive: -0.146% [at 11.4 µM, scaled: untreated 0%, proteasome inhibitor 100%] | 
8 | COC(=O)c1c(C)oc2ccc(N(C(=O)c3ccncc3)S(=O)(=O)c3ccc(OC)cc3)cc12 | inconclusive: 2.77% [signal inhibitor] | 
9 | CCc1ccc(-n2c(=O)c3c4c(sc3n(Cc3ccccc3C#N)c2=O)CCC4)cc1 | inconclusive: 5.34% [signal inhibitor] | 
10 | CCc1cc2ccc(C)cc2nc1SCC(=O)N1CCN(C(=O)c2ccco2)CC1 | inconclusive: 1.89% [signal inhibitor] | 
11 | O=C(Nc1cccc(NC(=O)C2CC3CCCC(C2)C3=O)n1)C1CC2CCCC(C1)C2=O (centres undefined) | inconclusive: 1.76% [signal inhibitor] | 
12 | CCOC(=O)c1cc2oc(C)cc2n1CC(=O)OC1CCCCC1 |  | inconclusive: 20 µM [signal inhibitor, single point]
13 | COCCNC(=O)c1nn(-c2ccc(C)cc2)c(=O)c2c1c1ccccc1n2C | inactive: -0.288% | 
14 | Cc1ccc(CCNC(=O)C2CCCN(c3nnc(C)c4c(C)n(-c5ccccc5)nc34)C2)cc1 (centres undefined) | inconclusive: -0.645% [signal inhibitor] | 
15 | O=C(CN1C(=O)CCC1=O)Nc1nc(-c2ccccn2)cs1 | inactive: -2.56% | 
16 | Cc1ccc2c(c1)C1CN(C)CCC1N2C(=O)Nc1ccc(Cl)cc1 (centres undefined) | inconclusive: -0.182% [signal inhibitor] | 
17 | CC1=C(c2ccc(F)cc2)S(=O)(=O)N=C1N1CCC(C(=O)NCCc2cccc(C)c2)CC1 | inconclusive: 2.07% [signal inhibitor] | 
18 | Cc1ccc(CSc2ncc(Cl)c(C(=O)Nc3nnc(C)s3)n2)cc1 | inconclusive: 6.44% [signal inhibitor] | 
19 | COc1cccc(-c2nc(CS(=O)(=O)CC(=O)NCc3cccc(Cl)c3)c(C)o2)c1 | inconclusive: 0.862% [signal inhibitor] | 
20 | Cc1ccc2c(c1)c(C)c(C)n2CC(O)Cn1nc(C)c(Br)c1C (centres undefined) | inactive: -0.833% | 
21 | COc1ccc(-c2cnnn2-c2ccc(NC(=O)c3ccccc3OC)cc2)cc1 | inconclusive: 0.445% [signal inhibitor] | 
22 | COc1ccc(CCNC(=O)CN2C(=O)COc3ccc(S(=O)(=O)N4CCCC4)cc32)c(OC)c1 | inconclusive: 0.199% [signal inhibitor] | 

Row | Compound | IkBa stabilization activation | Potency
23 | Cc1c(C(=O)NCc2cccc(Cl)c2)sc2nc3n(c(=O)c12)CCCC3 | inconclusive: 0.264% [signal inhibitor] | 
24 | O=C(O)c1nnsc1COCc1ccccc1 | inactive: 0.584% [at 11.4 µM, scaled: untreated 0%, proteasome inhibitor 100%] | 
25 | Cc1csc2nc(=O)c3ccccc3n12 |  | inconclusive: 7.94 µM [signal inhibitor, partial curve]
26 | COc1ccc(-c2nc3sc(CCNC(=O)C(=O)Nc4cccc(NC(C)=O)c4)c(C)n3n2)cc1 | inactive: 0.457% | 
27 | Cn1c(=O)c(-c2ccccc2)nc2cnc(Oc3ccccc3)nc21 | inactive: -0.556% [at 11.4 µM, scaled: untreated 0%, proteasome inhibitor 100%] | 
28 | CCNC(=O)C1CCN(S(=O)(=O)c2ccc3c(c2)CCCN3C(C)=O)CC1 | inactive: 1.21% | 
29 | Cn1c(SCc2nnc(-c3ccccc3Br)o2)nc2sc3c(c2c1=O)CCC3 | inconclusive: 7.12% [signal inhibitor] | 
30 | CCOc1cc(C(=O)Nc2ccc(-c3cn4cccnc4n3)cc2)cc(OCC)c1OCC | inconclusive: 4.3% [signal inhibitor] | 
31 | COc1ccc(C(=O)NCc2nc3ccccc3[nH]2)cc1OC | inactive: 3.46% | 
32 | CNc1nc2sc3c(c2c(=O)n1C)CC(C)(C)SC3 | inactive: -2.29% | 
33 | N#Cc1nc(COc2ccc(F)cc2)oc1N1CCC(Cc2ccccc2)CC1 | inactive: 3.23% | 
34 | Cn1c(=O)oc2cc(S(=O)(=O)CCC(=O)N3CCN(c4cccc(Cl)c4)CC3)ccc21 | inconclusive: -0.938% [signal inhibitor] | 
35 | CC1CCc2c(sc(N)c2C(N)=O)C1 (centres undefined) | inconclusive: 7.51% [signal inhibitor] | 
36 | O=C(CCN1CCN(c2ccccc2F)CC1)c1ccc(Br)cc1 |  | inconclusive: 31.6 µM [signal inhibitor, partial curve]
37 | O=C(CSc1ncn[nH]1)NC1CC2CCC1C2 (centres undefined) | inactive: 1.5% | 
38 | Cc1cccc(NC(=O)C2CCCN2S(=O)(=O)c2ccc3nc(-c4ccccc4)[nH]c3c2)c1 (centres undefined) | inconclusive: -0.0719% [signal inhibitor] | 
39 | Cc1ccc2c(c1)c1c(c(=O)n(-c3ccccc3)c(=O)n1CC(=O)NCC1CCCO1)n2C (centres undefined) | inconclusive: 1.67% [signal inhibitor] | 
40 | CN(C)CCCNc1cc(N2CCN(C3CCCCC3)CC2)c2noc3c2c1C(=O)c1ccccc1-3 | inactive: -0.482% | 
41 | COc1cc2ncc3c(-c4ccc(C)cc4)nn(-c4ccc(F)cc4F)c3c2cc1OC | inconclusive: 3.12% [signal inhibitor] | 
42 | COc1ccc(Cn2ccnc2SCC(=O)Nc2nc3ccccc3s2)cc1 | inconclusive: 6.69% [signal inhibitor] | 
43 | Cc1cc(C)n2c(SCCC(C)C)nnc2n1 | inactive: 0.25% | 
44 | Nn1c(Nc2ccccc2)nc2sc3c(c2c1=O)CCC3 | inconclusive: 0.502% [signal inhibitor] | 
